The results in this text go back to patent publication US20240381870A1 (priority 2024, published 2024).

For this experiment, the system named is wheat stem base rot disease. As to conditions: in words. The protocol:
Wheat stem base rot disease control experiments were conducted in 2020 and 2021. The experiments were conducted using the following formulations: 12% cyclobutrifluram·prochloraz suspension seed coating in example 4 of formulation implementation, 20% cyclobutrifluram suspension seed coating, 20% prochloraz suspension seed coating, and 15% carbendazim·fipronil suspension seed coating. The experimental site was located in Liuhu Farm, Suixi County. The wheat variety is “Quanmai 725”. The dosage of the preparation was 1:400 by weight to the seeds for seed coating, and the drug was diluted into a drug solution. The final dosage of drug solution and the dosage of seeds was 1 liter of drug solution to coat 100 kg wheat seeds, and then sow directly after shade drying. The disease investigation was conducted after jointing and booting (Table 5).

For `O=C(NC1CCC1c1ccc(Cl)cc1Cl)c1cccnc1C(F)(F)F` (centres unmarked) [Cyclobutrifluram(C), Cyclobutrifluram], the “control effect on wheat stem base rot disease” value is on record as “significant control effect”. Next, `CCCN(CCOc1c(Cl)cc(Cl)cc1Cl)C(=O)n1ccnc1` [Prochloraz(P), Prochloraz]: “significant control effect”.
